Assay results reported in the supplement of paper PMC12217912.
The other results are listed elsewhere or left out. Sequences were assembled here from the parent chain. Inactive controls read about 0.05.

B1: TEV protease; numbered along this chain (parent)
chain: MGESLFKGPRDYNPISSSICHLTNESDGHTTSLYGIGFGPFIITNKHLFRRNNGTLVVQSLHGVFKVKDTTTLQQHLVDGRDMIIIRMPKDFPPFPQKLKFREPQREERICLVTTNFQTKSMSSMVSDTSCTFPSGDGIFWKHWIQTKDGQCGSPLVSTRDGFIVGIHSASNFTNTNNYFTSVPKNFMELLTNQEAQQWVSGWRLNADSVLWGGHKVFMVKPEEPFQPVKEATQL

Variants of: B1
Experiment: raw area under fraction-flipped curve 0-4 h after induction (AUC4h, not background-subtracted), DNA-recorder readout of cleavage of the substrate (dimensionless); higher = more cleavage of the substrate by the protease variant
Details: temperature: 34 °C; time window: 0-4 h after rhamnose induction
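Further: Bxb1 expression induced with 0.2% (w/v) L-rhamnose at OD600 near 0.5, cultures sampled hourly, flipped fraction per protease–substrate barcode pair counted by paired-end Illumina sequencing.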

| Variant | area with substrate CNLYFQS | area with substrate HNLYFQS | area with substrate KNLYFQS | area with substrate LNLYFQS | area with substrate NNLYFQS | area with substrate QNLYFQS | area with substrate SNLYFQS | area with substrate TNLYFQS | area with substrate WNLYFQS | area with substrate FNLYFQS | area with substrate GNLYFQS | area with substrate INLYFQS | area with substrate MNLYFQS | area with substrate VNLYFQS | area with substrate PNLYFQS | area with substrate YNLYFQS | area with substrate DNLYFQS | area with substrate RNLYFQS |
| --- | --- | --- | --- | --- | --- | --- | --- | --- | --- | --- | --- | --- | --- | --- | --- | --- | --- | --- |
| K120N | 0.0628 | 0.0511 | 0.0868 | 0.0649 | 0.0741 | 0.073 | 0.0763 | 0.0761 | 0.0606 | – | – | – | – | – | – | – | – | – |
| K120V | 0.0437 | 0.0714 | – | 0.0604 | 0.0507 | – | – | 0.0581 | 0.0622 | 0.0591 | 0.0653 | 0.0817 | 0.065 | 0.0527 | – | – | – | – |
| K120D | 0.0767 | 0.0632 | – | – | – | 0.0757 | 0.0712 | – | 0.0662 | 0.0623 | – | 0.0635 | 0.0595 | – | 0.0659 | – | – | – |
| K120C | 0.0738 | 0.071 | – | 0.0632 | 0.0536 | – | – | 0.0755 | 0.0625 | 0.0669 | 0.0713 | 0.0656 | – | – | 0.0815 | 0.0439 | – | – |
| S123W | 0.0712 | 0.0623 | 0.0629 | 0.064 | – | – | 0.0608 | 0.0718 | 0.0633 | – | 0.075 | 0.0674 | 0.0541 | – | 0.0666 | 0.0595 | 0.0795 | 0.0524 |
| P134Y | 0.0631 | 0.058 | 0.067 | 0.0633 | – | – | 0.0382 | 0.0601 | 0.0644 | 0.051 | 0.0771 | – | 0.054 | – | 0.0569 | 0.0594 | 0.0691 | – |
| P134C | 0.0567 | 0.0586 | 0.0605 | 0.0571 | 0.0605 | 0.0626 | 0.0544 | 0.0477 | 0.0515 | – | – | 0.0526 | 0.0562 | – | 0.0914 | – | 0.0558 | – |
| R106Q | 0.0654 | 0.0654 | 0.0714 | 0.0626 | 0.0712 | 0.0649 | 0.0601 | 0.0708 | 0.0692 | 0.0598 | 0.0559 | 0.081 | 0.0614 | 0.0646 | 0.0786 | 0.047 | 0.103 | – |
| S124K | 0.0778 | 0.0802 | 0.0575 | 0.0635 | 0.104 | – | 0.056 | 0.0653 | 0.068 | 0.0613 | 0.0725 | 0.0837 | 0.0499 | 0.146 | – | 0.0641 | 0.0792 | – |
| L112G | 0.0605 | – | 0.0527 | – | 0.0027 | – | 0.0626 | 0.0617 | – | – | – | 0.0557 | – | – | 0.0534 | 0.0563 | – | – |
| L112V | 0.0673 | 0.0616 | 0.0556 | 0.0642 | 0.0572 | 0.0848 | 0.0568 | 0.067 | 0.0594 | 0.0652 | – | 0.0544 | 0.0603 | 0.0662 | 0.0593 | 0.0557 | 0.0713 | – |
| L112K | 0.0716 | 0.0632 | 0.07 | 0.0608 | 0.0815 | 0.0553 | 0.0656 | 0.0712 | 0.0596 | 0.0594 | 0.0723 | 0.0568 | 0.0661 | 0.0771 | 0.0693 | 0.0781 | 0.0693 | – |
| L112M | 0.0848 | 0.0621 | 0.0585 | 0.0704 | – | – | 0.0646 | 0.0695 | 0.0626 | – | – | – | 0.0626 | – | 0.0674 | 0.0763 | – | – |
| I110V | 0.0619 | – | 0.0463 | 0.0676 | 0.067 | – | 0.0705 | 0.0661 | 0.0583 | 0.0661 | 0.0732 | 0.0546 | – | – | – | 0.0694 | 0.0761 | 0.0756 |
| F117V | 0.0805 | 0.0641 | 0.0692 | – | 0.0535 | – | 0.066 | 0.04 | 0.0592 | – | 0.0629 | 0.0619 | 0.0687 | – | 0.0652 | 0.0554 | 0.0795 | 0.0529 |
| S127T | 0.0672 | 0.0629 | 0.0806 | – | – | 0.0856 | – | 0.0633 | 0.0633 | – | 0.0416 | 0.0752 | 0.0673 | – | 0.0689 | – | 0.0721 | – |
| M125D | 0.0836 | 0.072 | 0.0671 | 0.064 | 0.0684 | 0.0486 | 0.0735 | – | 0.0614 | 0.0574 | – | 0.0634 | 0.06 | 0.0706 | 0.0592 | 0.0392 | 0.0787 | 0.0883 |
| S121Q | 0.0635 | 0.0723 | 0.0677 | 0.0616 | 0.069 | 0.0632 | – | 0.0694 | 0.0622 | 0.0682 | – | 0.0949 | – | – | 0.0628 | 0.0532 | 0.0856 | 0.0388 |
| D128Q | 0.0939 | 0.0756 | 0.0716 | 0.0578 | 0.0773 | 0.124 | 0.0783 | 0.0737 | 0.0667 | 0.0622 | – | 0.0643 | 0.0787 | 0.0713 | 0.101 | 0.0587 | 0.0909 | – |
| D128S | 0.0801 | 0.062 | 0.0688 | 0.095 | – | – | 0.127 | 0.0881 | 0.0725 | – | 0.0955 | – | 0.0749 | 0.0786 | 0.0873 | 0.0765 | – | – |
| T119I | 0.0733 | 0.0671 | – | 0.0762 | – | – | – | 0.0731 | 0.0586 | – | – | – | – | 0.0898 | – | – | 0.082 | 0.0749 |
| G136A | 0.0543 | – | – | – | 0.0746 | – | 0.0677 | 0.0411 | 0.0628 | – | – | – | – | – | – | 0.0653 | – | – |
| G136E | 0.0712 | – | 0.0596 | 0.0622 | 0.0708 | – | 0.0696 | 0.0582 | 0.0459 | – | – | – | 0.055 | 0.0796 | 0.0571 | – | 0.0804 | – |
| P104S | 0.0491 | 0.0587 | 0.0522 | 0.0399 | 0.0477 | – | 0.0547 | 0.0563 | 0.0419 | – | 0.0499 | 0.0446 | – | – | 0.0546 | – | – | – |
| P104V | 0.0621 | 0.0617 | 0.0686 | – | 0.0624 | – | 0.053 | 0.0637 | 0.0585 | 0.0546 | – | – | 0.0609 | – | 0.0642 | 0.0587 | 0.0597 | 0.0468 |
| P104R | 0.0586 | – | 0.0466 | – | 0.0536 | 0.0518 | 0.0544 | 0.0696 | 0.053 | 0.0534 | – | 0.071 | 0.0611 | 0.0523 | 0.078 | 0.0423 | 0.056 | 0.0598 |
| T132M | 0.0645 | 0.0599 | 0.0429 | – | 0.0617 | – | 0.0757 | 0.0721 | – | – | 0.0726 | 0.0636 | – | 0.0627 | 0.0529 | – | 0.089 | 0.073 |
| T132D | 0.0655 | 0.0464 | 0.063 | 0.0485 | 0.0753 | 0.0521 | 0.0637 | 0.0511 | 0.0538 | 0.0611 | 0.0477 | 0.0556 | 0.0628 | 0.0611 | 0.0525 | 0.0366 | 0.0415 | – |
